According to PMC4336329 (PLoS ONE, 2015):
In all, about 310,000 compounds went through this assay and about 2,200 (0.71%) showed an effect of 50% or more. The effect is printed as a negative number. The list shows a part of the results.

What follows are compounds tested against human ether-à-go-go-related gene (hERG) potassium channel (human, UniProt Q12809) (assay: primary screen, population patch clamp on CHO cells stably expressing hERG).
Chain of human ether-à-go-go-related gene (hERG) potassium channel (Q12809 whole entry, looked up): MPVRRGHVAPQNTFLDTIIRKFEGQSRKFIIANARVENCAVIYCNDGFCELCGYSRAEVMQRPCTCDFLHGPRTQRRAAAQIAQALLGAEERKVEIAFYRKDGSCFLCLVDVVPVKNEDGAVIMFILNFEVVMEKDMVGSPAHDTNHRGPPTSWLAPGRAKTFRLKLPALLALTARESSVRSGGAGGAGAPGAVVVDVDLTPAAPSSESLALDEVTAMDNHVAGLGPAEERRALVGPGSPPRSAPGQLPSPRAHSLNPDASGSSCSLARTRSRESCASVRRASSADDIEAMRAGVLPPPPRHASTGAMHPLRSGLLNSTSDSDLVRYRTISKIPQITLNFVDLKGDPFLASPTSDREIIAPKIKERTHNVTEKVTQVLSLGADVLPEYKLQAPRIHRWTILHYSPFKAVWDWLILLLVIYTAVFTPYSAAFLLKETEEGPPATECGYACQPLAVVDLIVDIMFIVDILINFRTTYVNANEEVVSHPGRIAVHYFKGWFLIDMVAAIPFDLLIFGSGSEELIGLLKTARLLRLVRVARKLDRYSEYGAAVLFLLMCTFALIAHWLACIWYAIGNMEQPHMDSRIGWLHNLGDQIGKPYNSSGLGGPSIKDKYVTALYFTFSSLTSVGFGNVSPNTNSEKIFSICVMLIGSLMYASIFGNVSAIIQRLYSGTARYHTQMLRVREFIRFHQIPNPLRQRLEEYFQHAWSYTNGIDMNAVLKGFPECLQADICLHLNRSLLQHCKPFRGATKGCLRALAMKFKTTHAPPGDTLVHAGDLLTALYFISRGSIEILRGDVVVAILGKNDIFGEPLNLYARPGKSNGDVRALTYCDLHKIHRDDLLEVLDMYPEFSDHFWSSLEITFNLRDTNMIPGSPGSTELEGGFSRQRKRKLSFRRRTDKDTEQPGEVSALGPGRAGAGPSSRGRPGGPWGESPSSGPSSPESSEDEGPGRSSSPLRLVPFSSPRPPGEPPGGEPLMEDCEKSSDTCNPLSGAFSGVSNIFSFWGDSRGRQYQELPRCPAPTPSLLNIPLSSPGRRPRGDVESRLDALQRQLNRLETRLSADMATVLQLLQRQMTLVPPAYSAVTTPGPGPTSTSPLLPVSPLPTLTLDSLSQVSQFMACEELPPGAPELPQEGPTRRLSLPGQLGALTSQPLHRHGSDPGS

| SMILES | hERG current change (%, negative = inhibition) at 1uM [%] |
| --- | --- |
| CC(=O)Oc1ccccc1C(=O)N(C1CCCCC1)C1CCCCC1 | 16.1 |
| Cc1cc(NC(=O)CSc2nc(N)c(NC(=O)c3ccccc3)c(=O)[nH]2)no1 | 8.24 |
| O=C(Nc1cccc(-c2ccc(N3CCCCC3)nn2)c1)c1ccc(Br)o1 | 10.6 |
| COc1ccc2[nH]c3c(c2c1)CCN1C(=O)N([C@@H](C)C(=O)NCCc2ccc(F)cc2)C(=O)[C@]31C | -1.92 |
| CCn1c(SCC(=O)N(C)CC(=O)Nc2ccc(OC)cc2)nnc1-c1ccco1 | 17.6 |
| Cc1cccc(N2CCN(C(=S)c3ccccc3)CC2)c1 | 17.2 |
| O=[N+]([O-])c1ccc(CNc2ccc(Cl)cc2)s1 | 12.4 |
| NC(=O)NC(=O)COC(=O)CN1C(=O)C2CCCCC2C1=O (stereo not shown) | 7.18 |
| CCOC(=O)c1cc(NC(=O)N(C(C)C)C(C)C)c(C)nc1C | -1.03 |
| CCOC(=O)c1c(NC(=O)CSc2nnc(C)c(=O)[nH]2)sc(C)c1-c1ccc(C)cc1 | 3.16 |
| CCOC(=O)c1c(S(=O)(=O)Nc2ccccc2OCC)c(C)n(C)c1C | 1.3 |
| Cc1ccc2c(CC(=O)NNC(=O)c3ccccc3)coc2c1 | 12 |
| CC(=O)Oc1ccc2c(=O)c(/C=N/c3cc(=O)[nH]c(=S)[nH]3)coc2c1 | -0.904 |
| COc1ccccc1NS(=O)(=O)c1ccc(N/N=C(\C)C(C)C)c([N+](=O)[O-])c1 | 4.93 |
| COc1cc(C2C(C#N)=C(N)N(c3cccnc3)C3=C2C(=O)CC(C)(C)C3)ccc1O (stereo not shown) | 1.59 |
| O=c1ccc(-c2ccc(S(=O)(=O)NCC3CCN(Cc4cccc(F)c4)CC3)s2)n[nH]1 | 1.82 |
| CCN(CC)c1ccc(N/C(N)=N/c2nc(C(F)(F)F)cc(=O)[nH]2)cc1 | 12.2 |
| Cc1cc[n+](-c2[nH]c(=O)sc2/C=N/N=C(\[O-])c2ccccc2)cc1 | 7.51 |
| Cc1c(OCC(=O)N[C@H](C(=O)O)c2ccccc2)ccc2c3c(c(=O)oc12)CCCC3 | 15.2 |
| C=CCn1c(SCC(=O)O)nc2sc(CC)cc2c1=O | -3.86 |
| COc1cccc(-c2ncc3ccccc3c2COC(=O)c2cccc(Br)c2)c1 | 17.6 |
| Cc1cc(OCC(=O)NC2CC(C)(C)NC(C)(C)C2)c2c(C)cc(=O)oc2c1 | -3.8 |
| Cc1noc(C)c1COc1ccccc1C(=O)NCCc1ccc(S(N)(=O)=O)cc1 | 4.96 |
| CC1(c2ccccc2)CC(C)(C)N2C(=O)C3(C(C#N)=C(N)Oc4cc(O)ccc43)c3cccc1c32 (stereo not shown) | 6.18 |
| Cc1cccc(N2CC(O)(c3cccs3)[N+]3=C2CCCC3)c1C.[Br-] (stereo not shown) | -4.09 |
| CCOC(=O)c1nc(NCCc2ccccc2)sc1C | 7.63 |
| O=C(O)C1CCN(C(=O)COc2ccc(Br)cc2)CC1 | 14.7 |
| C=CCOc1ccc(CNn2cn[nH]c2=S)cc1 | 8.58 |

| SMILES | hERG current change (%, negative = inhibition) at 1uM [%] |
| --- | --- |
| CC1CCc2c(sc(NC(=O)c3nc4ncccn4n3)c2C#N)C1 (stereo not shown) | 7.06 |
| O=C(NC(Cc1ccccc1)C(=O)O)/C(=C/c1ccccc1)NC(=O)c1ccco1 (stereo not shown) | 12.2 |
| COC(=O)c1ccccc1NC(=O)CN(C)Cc1ccccc1 | 21.1 |
| COc1cc(NS(=O)(=O)c2ccc(NC(=O)c3ccc(Cl)cc3Cl)cc2)ncn1 | -0.314 |
| C=CCNc1nc(C(=O)OCC(=O)Nc2ccccc2C(F)(F)F)cs1 | 5.13 |
| O=C(Nc1ccc(Br)cn1)c1ccc2nccnc2c1 | 9.13 |
| COC(=O)C1C(=O)C=C(N2CCOCC2)CC1(C)C (stereo not shown) | 12.8 |
| Cc1c(C(=O)N2CCCC(C)C2)sc2ncnc(N3CCCCC3C)c12 (stereo not shown) | 7.34 |
| CC(C)Oc1cc(S(=O)(=O)N2CCCCC2)ccc1N | 7.94 |
| Cc1cccc(C(=O)OCC(=O)NC(=O)NCc2ccccc2)c1 | 3.22 |
| COc1ccccc1OCCCOc1ccc([N+](=O)[O-])cc1Cl | 9.1 |
| CCC(C)(C)NC(=O)C(c1ccc(OC)cc1)N(C(=O)CCC(=O)Nc1cc(C)on1)c1ccc(F)cc1 (stereo not shown) | 13.3 |
| COc1ccccc1NC(=O)CON=C(N)CC(=O)NC1CCCCC1 | 7.64 |
| CC(=O)N1CC(C)Sc2ccc(S(=O)(=O)NCCc3ccccc3)cc21 (stereo not shown) | 9.12 |
| O=C(COC(=O)c1ccccc1[N+](=O)[O-])Nc1cccnc1Cl | 16.3 |
| Cc1cccc(C)c1OCc1nnc2c3cnn(C)c3ncn12 | 9.32 |
| O=C(/C=C/c1ccccc1Cl)Nc1ccncc1 | 8.13 |
| Cc1cc(=O)[nH]c(SCC(=O)Nc2ccc(C(=O)O)cc2)n1 | 12.5 |
| CCCCNC(=S)NC(=O)c1ccc([N+](=O)[O-])cc1 | -5.53 |
| CN(CC(=O)Nc1cccc(F)c1)C(=O)CN1c2cccc3cccc(c23)S1(=O)=O | 8.8 |
| O=C(CSc1ccccc1C(=O)O)c1ccc(Cl)cc1 | 21.7 |
| CCOC(=O)c1cc2cc(-c3c(C(=O)OCC)oc4cc(O)cc(O)c4c3=O)ccc2o1 | 2.57 |
| CCOc1ccc(NC(=O)CSc2nc3ccccc3c(=O)n2Cc2cccs2)cc1 | 6.68 |
| COc1ccc(CN2CCn3nc(C(=O)NC4CC4)cc3C2=O)cc1 | 12.1 |
| CC(=O)c1cccc(NC(=O)N2CCC(C(=O)c3ccc(F)cc3)CC2)c1 | 3.08 |
| Cc1cccc(-n2c(-c3ccc([N+](=O)[O-])cc3)nc3ccccc3c2=O)c1 | 2.02 |
| CCOC(=O)C1=C(C)NC2=C(C(=O)C(C(=O)OC)C(C)C2)C1c1ccc(OC)c(O)c1 (stereo not shown) | 14.9 |
